The source of these data is the antibiotic and cytotoxicity screens of Wong et al. (2023).

Structures are written as SMILES. The list shows a part of the results.

This test relates to HSkMC (human skeletal muscle cells). In words: cytotoxicity call (relative viability < 0.9). The conditions noted are these: 10 µM.
Turning to `Clc1ccc2c(c1)C(N1CCNCC1)=Nc1ccccc1O2`, the cytotoxicity call is “inactive”.

On to `O=C(CN1CCOCC1)NCC[C@@H]1CC[C@H](NC(=O)Nc2ccccc2)[C@H](CO)O1`, for which the cytotoxicity call is “inactive”.

Take `Cc1ccc(S(=O)(=O)Nc2ccc3c(c2)C(=O)N([C@@H](C)CO)C[C@@H](C)[C@H](CN(C)S(=O)(=O)c2ccc(C)cc2)OCCCC[C@@H](C)O3)cc1`: the cytotoxicity call was “inactive”.

For the compound `COc1ccc(-c2cnc3c(c2)C(=O)N([C@H](C)CO)C[C@H](C)[C@H](CN(C)S(=O)(=O)c2cccc(F)c2)O3)cc1`, the cytotoxicity call is “inactive”.

Take `CC(C)NC(=O)N(C)C[C@H]1Oc2c(NC(=O)NC3CCCCC3)cccc2C(=O)N([C@@H](C)CO)C[C@H]1C`: the cytotoxicity call is “inactive”.

As for `C[C@@H]1CN([C@H](C)CO)C(=O)c2cc(NC(=O)NC3CCCCC3)ccc2O[C@@H](C)CCCCO[C@H]1CN(C)Cc1ccc2c(c1)OCO2`, the cytotoxicity call is “inactive”.

On to `COc1ccc(NC(=O)N(C)C[C@H]2Oc3ncc(C#C[C@@H](C)O)cc3C(=O)N([C@H](C)CO)C[C@@H]2C)cc1`, for which the cytotoxicity call was “inactive”.

Take `C[C@@H]1CN([C@H](C)CO)C(=O)c2cc(NS(=O)(=O)c3ccc(Cl)cc3)ccc2O[C@@H](C)CCCCO[C@@H]1CN(C)C(=O)C1CCCCC1`: the cytotoxicity call was “inactive”.

`C=CCOC(=O)[C@H]1[C@@H]2C(=O)O[C@@H](c3ccccc3)[C@@H](c3ccccc3)N2[C@@H](c2ccc(OCCOC(=O)[C@H]3C[C@H]4C(=O)N[C@@H](CCCC[N+](C)(C)C)C(=O)N4[C@H]3c3cccc(OCCO)c3)cc2)[C@]12C(=O)Nc1ccc(I)cc12`: the cytotoxicity call was “inactive”.

As for `Cc1noc(C)c1NC(=O)Nc1ccc2c(c1)CC(=O)N([C@H](C)CO)C[C@@H](C)[C@H](CN(C)CC1CC1)O2`, the cytotoxicity call is “inactive”.
